Test results as given in US10941121B2 (AZIENDA OSPEDALIERA UNIVERSITARIA SENESE, priority 2015, dated 2021).

Experiments:
[1] = test system: Dengue virus type 2 (DENV-2; New Guinea-C Strain); experiment: DENV infectious cell culture system in Huh7 cells, E protein immunostaining; conditions: for EC50: Dengue virus, DENV2, Huh-7, 48 h, read-out: DENV EC50
[2] = test system: West Nile virus New York 99 strain (WNV-NY99); experiment: WNV infectious cell culture system in Huh7 cells, E protein immunostaining; conditions: for EC50: West Nile virus, Huh-7, 48 h, read-out: WNV EC50

Structure (SMILES) | inhibition of DENV infection, in words [1] | inhibition of WNV infection, in words [2] | EC50 [2] | EC50 [1]
CCCCc1cn(-c2ccc(NC(=O)Nc3ccccc3C)cc2)nn1 [Compound 20a, 1-(4-(4-butyl-1H-1,2,3-triazol-1-yl)phenyl)-3-o-tolylurea] | significantly inhibit | significantly inhibit | 16000 nM | 
Cc1ccccc1NC(=O)Nc1ccc(-n2cc(CCC(C)C)nn2)cc1 [Compound 20b, 1-(4-(4-isopentyl-1H-1,2,3-triazol-1-yl)phenyl)-3-o-tolylurea] | significantly inhibit | significantly inhibit | 2830 nM | 130 nM
CCCCc1cn(-c2ccc(NC(=O)Nc3ccccc3C(F)(F)F)cc2)nn1 [Compound 22a, 1-(4-(4-butyl-1H-1,2,3-triazol-1-yl)phenyl)-3-(2-(trifluoromethyl)phenyl)urea] | significantly inhibit | significantly inhibit | 180 nM | 120 nM
O=[N+]([O-])c1cccc(S(=O)(=O)Nc2ccccc2O)c1 [Compound 58a, N-(2-hydroxy)-3-nitro-phenylbenzenesulfonamide] |  |  | 7160 nM | 1100 nM
